“And” between values parts separate entries of the source, which are not always exact repeats. Equal entries are not always repeated.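 Where inhibition never reached the appropriate level, the endpoint shown equals the highest concentration tested. Otherwise, values were interpolated linearly from a five-concentration, 48-hour dose response in 96-well plates. GI50: concentration for 50% inhibition of growth. TGI marks complete inhibition of growth.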 Peptide text beside a SMILES is read from it.
These molecules were tested on NCI-H322M lung (assay: NCI tumour cell line growth inhibition, 48 h).

SMILES | GI50 | TGI
Cc1c[nH]c2c(O)cc3c(c12)[C@H](CCl)CN3C(=O)c1cc2cc(NC(=O)Nc3ccc4[nH]c(C(=O)N5C[C@@H](CCl)c6c5cc(O)c5[nH]cc(C)c65)cc4c3)ccc2[nH]1 | 23.3 µM and 8.9e-07 µg/mL | 71.7 µM and 0.0067 µg/mL
O=c1c(Oc2ccc(F)cc2F)cc2cnc(NC3CCOCC3)nc2n1C1CCS(=O)(=O)CC1 | > 25 µM | > 25 µM
CCNC(=O)CCN(C(=O)O)S(=O)(=O)c1ccc(NC(=O)c2ccccc2)cc1 | – | > 100 µM
O=C(O)c1ccc(P(=O)(O)c2ccc(C(=O)O)cc2Br)c(Br)c1 | – | > 100 µM
CC(=O)c1cccc(N2COC(C)(C)c3nc4ccccc4n3C2)c1 | – | > 100 µM
O=S(=O)(NC1=NCCN1C(=S)SN1CCn2c1nsc2=S)c1ccc(Br)cc1 | > 100 µM | > 100 µM
CCOC(=O)NC(=O)c1cn(CC(=O)NCC(=O)NCC(=O)NCCCN2CCN(CCCNC(=O)CNC(=O)CNC(=O)Cn3cc(C(=O)NC(=O)OCC)c(=O)[nH]c3=O)CC2)c(=O)[nH]c1=O | – | > 100 µM
CCOC(=O)c1cc(C#N)c(=O)n(/N=C(\C)c2ccncc2)c1O | > 100 µM | > 100 µM
O=C(c1ccccc1)c1ccc2nc3n(c2c1)C(c1c(F)cccc1F)SC3 (stereo not drawn) | – | > 93.1 µM
C=C(Cl)c1c(OC)cccc1OCc1ccccc1 | – | > 100 µM
O=[N+]([O-])c1cccc(C2N3CCCCC3[C@@H]3c4[nH]c5ccccc5c4CCN23)c1 (stereo partly drawn) | – | 39.3 µM
C=C1C(=O)O[C@H]2[C@H]1CC/C(CNC(=O)c1cc3cc(OC)ccc3[nH]1)=C\CC[C@@]1(C)O[C@@H]21 | 11.2 µM | 23.8 µM
CCN(CC)CCC(=O)NC1c2ccc(Cl)cc2Oc2c(C)cccc21 (stereo not drawn) | – | 29.5 µM
COc1ccc2nc3c([N+](=O)[O-])ccc4c3c(c2c1)N=CN4CCCN(C)C | – | 9.46 µM
CC(C)c1ccc(C(=O)Nc2nc3ccc(O)cc3s2)cc1 | 3.22 µM | > 100 µM
COc1cccc(OC/C(N=Cc2cccnc2)=N/NC(=O)c2ccncc2)c1 | – | > 100 µM
Cc1ccc(-n2cnc3c(N)nc(N)nc32)cc1 | – | > 100 µM
COCC(N=CN1CCCc2ccccc2[C@@H]1CCCCl)C(C)(C)C (stereo partly drawn) | – | 40.8 µM
COc1nc(C)nc2sc3c(c12)CCCC3 | – | > 100 µM
COc1cc(/C=C(\C#N)C(=O)c2ccccc2)ccc1OCc1ccccc1 | – | > 100 µM
Cc1c(C)c2c(c(N)c1C#N)C(=O)N(CCc1ccccc1)C2=O | – | > 100 µM
Cc1[nH]c2ccccc2c1C1Cc2ccccc2N1C(=O)/C=C\C(=O)O (stereo not drawn) | – | > 100 µM

SMILES | GI50 | TGI
CCCCOC(=O)NC(=O)c1cn(CCCOC(=O)CCCCCCCCC(=O)OCCCn2cc(C(=O)NC(=O)OCCCC)c(=O)[nH]c2=O)c(=O)[nH]c1=O | – | > 100 µM
CO[C@H]1c2cccc3cccc(c23)[C@@H]1n1[nH]c(=O)n(C(C)(C)C)c1=O | – | > 100 µM
COC(=O)C(Cc1c[nH]c2ccccc12)N=C1Nc2ccncc2S(=O)(=O)N1c1ccccc1 (stereo not drawn) | – | 56.1 µM
CC(=O)[O-].CC(=O)[O-].[Pt+2].c1cscn1.c1cscn1 | > 100 µM | > 100 µM
O=Cc1ccc(-c2cc(C=O)c(-c3cccs3)[nH]2)s1 | 28.4 µM | 75 µM and > 100 µM
CN(C)C=C1C(=O)c2c(Br)sc(Br)c2C1=O | – | 51.6 µM
Cc1ccc2c(c1)C(=O)/C(=N/Nc1ccc(Cl)cc1)CCO2 | – | > 100 µM
Cc1ccc2nc(CN3CCCC(O)C3)cc(=O)n2c1 (stereo not drawn) | – | > 100 µM
O=C1c2cccc3cc([N+](=O)[O-])cc(c23)C(=O)N1CCCN1CCN(CCCNc2ccc3ncn4c5ccccc5c(=O)c2c34)CC1 | – | > 50 µM
CCCCCCCCCCCCCCCCCCNc1ccn(C2OC(COP(=O)(O)OC3CC(n4cc(F)c(=O)[nH]c4=O)OC3COP(=O)(O)OCC3OC(n4ccc(N)nc4=O)C(O)C3O)C(O)C2O)c(=O)n1 (stereo not drawn) | – | > 100 µM
CCOC(=O)NNC(=O)C1CSC(c2ccccc2)N1C(C)=O (stereo not drawn) | – | > 100 µM
Cc1nc2sc(C(=O)Nc3cccc(Cl)c3C)c(N)c2cc1C(=O)/C=C/c1ccccc1 | 1.52 µM | 13 µM
CC1=C(C(=O)Nc2ccccc2C)C(c2ccc(Cl)c(Cl)c2)C(C(=O)Nc2ccccc2C)=C(C)N1 | – | > 100 µM
NC1(C(=O)NC2(C(=O)O)CCCC2)CCCC1 (HELM PEPTIDE1{[NC1(C(=O)[*:2])CCCC1].[O=C(O)C1(N[*:1])CCCC1]}$$$$V2.0) | – | > 100 µM
COC(=O)c1s/c(=N\C(=S)N(C)C)n(-c2ccccc2)c1C(=O)OC | – | > 100 µM
CC(=O)C(=[N+]=[N-])C(=O)NCC#N | – | > 10 µM
CC1=C2[C@@H](CC1)[C@]1(C)O[C@@](C3CCCCC3)(C[C@H]1OC(=O)CO)[C@H]2OC(=O)/C=C/c1ccccc1 | 13 µM | 30 µM
Cc1csc2nc3c(cnn3C)c(=S)n12 | – | > 100 µM
CCC1(CC)C(=O)OC(=O)C1(CC)CC | – | > 100 µM
O=c1ccn(C2OC(CO)C(O)C2F)c(=O)[nH]1 (stereo not drawn) | > 1000 µM | > 1000 µM
C=CCC(N[C@H](CO)c1ccccc1)c1ccc2ccccc2n1 (stereo partly drawn) | > 100 µM | > 100 µM
CN[C@@H](C)C(=O)N[C@H](C(=O)N1CCC[C@H]1C(=O)N[C@H]1c2ccccc2C[C@H]1OCC#CC#CCO[C@@H]1Cc2ccccc2[C@@H]1NC(=O)[C@@H]1CCCN1C(=O)[C@@H](NC(=O)[C@H](C)NC)C1CCCCC1)C1CCCCC1 | 11.9 µM | 25.9 µM

SMILES | GI50 | TGI
ClC1(Cl)C(c2ccccc2)C1c1ccccc1 (stereo not drawn) | – | > 100 µM
O=C(O[C@H]1CN[C@H](C#Cc2cc3ncnc(Nc4ccc5c(ccn5Cc5cc(F)ccc5F)c4)c3s2)C1)N1CCOCC1 | 0.292 µM | > 19.9 µM
O=c1c2cc(Cl)ccc2oc2ccc(OCCCCCN3CCCCC3)cc12 | 6.4 µM | 12.9 µM
O=C1c2ccccc2C(=O)N1CCCSc1ccccc1 | – | > 100 µM
COc1ccc(-c2onc(-c3ccc([N+](=O)[O-])cc3)c2C2=NCCN2)cc1 | – | > 100 µM
CC(C)(C)O/C=C1/C(=O)OC2C[C@@H](O[Si](C)(C)C(C)(C)C)CC12 (stereo partly drawn) | – | > 100 µM
Cc1cc(C)nc(NS(=O)(=O)c2ccc(Nc3c4ccccc4nc4c(C(=O)NNCCO)cccc34)cc2)n1 | – | > 100 µM
Nc1nc(Cl)c(N)c(NCC2(CO)CCC2)n1 | – | > 100 µM
COc1c2nc(CCl)[nH]c(=O)c2c(OC)c2nc(CCl)[nH]c(=O)c12 | – | > 100 µM
Cc1cc(Cl)ccc1NC(=O)CCCC(=O)C1CCCC1=O (stereo not drawn) | – | > 100 µM
CC(C)=CCCC(C)c1ccc(C)c2c1OCN(CC1CCNCC1)C2 (stereo not drawn) | 19.4 µM | 38.8 µM
CCN1CCN(C(=O)[C@]23CC[C@@H](C)[C@H](C)[C@@H]2C2=CC[C@@H]4[C@@]5(C)C/C(=C/c6ccncc6)C(=O)C(C)(C)[C@@H]5CC[C@@]4(C)[C@]2(C)CC3)CC1 | 1.59 µM | 3.05 µM
COC(=O)C(C)NP(=O)(N1CC1)N1CC1 (stereo not drawn) | – | > 100 µM
CSc1nc(C)c2c(n1)SCC2 | – | > 10 µM
Cn1c([N+](=O)[O-])cnc1/C=C1\Oc2ccccc2C1=O | 2.88 µM | 11.6 µM
CNc1c2cccc(C)c2nc2c(C(=O)NCCN(C)C)cccc12 | – | 0.617 µM
COc1ccc2c(c1)/C(=C\c1c(C)nc3n1CCS3)C(=O)N2 | – | > 100 µM
O=c1c(C=Nc2ccccc2Cl)c(O)n(-c2ccccc2)c(=O)n1-c1ccccc1 | – | > 100 µM
COc1cc(Cl)c2c3c(c(C(C)=O)oc13)CCC2 | – | > 100 µM
CC1(C)C2CCC3=C(CCC4(C)C5C[C@](C)(C(=O)O)CC[C@]5(C)CC[C@]34C)[C@@]2(C)CC[C@@H]1O (stereo partly drawn) | – | 39.1 µM
CC(=O)O[C@@H]1CC[C@@]2(C)C(CC[C@H]3[C@@H]4CC[C@H]([C@H](C)CCc5nc6ccc(C)cc6[nH]5)[C@@]4(C)CC[C@@H]32)C1 (stereo partly drawn) | – | > 100 µM

From PubChem BioAssay (NCI)
